Laboratory results taken from paper PMC10726135.
Some of the results follow. At the low end of the ranking, values are background and their order means little. Measured with an extract: partners may take part in the binding.

biological target: T1, HNF4alpha2 (COS-7 nuclear extract) (UniProt P41235); assay: protein-binding microarray; conditions: COS-7 nuclear extract on double-stranded Agilent 4x180k PBM; binding buffer, salt, pH and temperature not given; high values mean tight binding; double strand, one strand shown; sequences stand for … in …GCCTAGGGAGATTAGAGTATCGGTCGA
T1 sequence: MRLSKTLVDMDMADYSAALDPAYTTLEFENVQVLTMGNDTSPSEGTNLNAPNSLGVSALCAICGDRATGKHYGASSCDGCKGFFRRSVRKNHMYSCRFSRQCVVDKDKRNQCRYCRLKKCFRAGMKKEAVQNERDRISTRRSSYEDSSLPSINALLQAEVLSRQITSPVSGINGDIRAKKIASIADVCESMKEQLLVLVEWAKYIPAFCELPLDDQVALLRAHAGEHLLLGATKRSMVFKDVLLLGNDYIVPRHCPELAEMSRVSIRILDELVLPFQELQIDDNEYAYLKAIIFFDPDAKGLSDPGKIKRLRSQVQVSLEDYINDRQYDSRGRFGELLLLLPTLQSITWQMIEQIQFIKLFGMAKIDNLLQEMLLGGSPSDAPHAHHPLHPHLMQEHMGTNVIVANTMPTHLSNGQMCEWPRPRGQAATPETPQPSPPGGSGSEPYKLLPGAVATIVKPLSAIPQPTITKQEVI

Sequence	binding signal (log2 normalized intensity)
AACCTCCCTCCAAAATATCTCACTCCCACA	2.13
TTTGCAGTAGGATAAGTCCTTCCAAAGTCC	4.1
AAGCCATAGTTAACCCAGAAGACTGTCAAC	-1.21
GGACAAGGGGGAGGAGAGTACTGTCTCTTA	-1.08
AGCCACCAGTGCAAATATAAAAGGCTGTCA	-1.16
GCTCAGGGAATGTGGGTCCACATTCCTGAT	0.505
TTAGATATGGCTTATACTTGAGGTATGATG	1.64
CAAACACACAATATTGACATTCCAGCCTCC	-1.19
AGTGGAATGTGCCCTTTGACCTCTCTCTCC	7.71
TCCTGATGACTGCAGAGCTTGCTCTCACCA	-1.22
GTACTTTGTACATGGGAATAGACATTCCAG	2.04
AGCACAGGAAAGGGCTTTGGGGACTGAAGA	-1.07
CACTTGTTTGCACAAAGGGTTATGGGAAGT	1.2
CAGCGGGGTCAGAGAAACCTGGCTGCGAGT	-1.2
TAAGTAGCCAAGATTACAGCCACATGCTAA	-1.11
TTCTGAAGCCCTACAGCCCACAATTGCATG	-0.986
GAATGGAAACCCCTGTAAGTCCAAACAAAA	0.425
TCCCCTAGGTGATTAGAAGATAGCTTTAAA	-1.01
AGGTCCAACTGACATCTGGAAATGTTTGTA	0.961
ATATTCCTGGAATGACAAGAATTGGAACCC	2.03
CAGGTATTTGCTCTGTGATAGCCTTTTACC	0.459
TAGAAAGTGGTTTCAAGGTGACCCCACGGA	4.66
AGGACTTTCAACCCTGTGATGACCCCATAC	4.66
AATGCAGGGAGCAGAGTCCCAAGCATCTCT	-1.21

Sequence	binding signal (log2 normalized intensity)
GCCCCATCTATCTAGCCTGAAGTCTTAACC	0.868
GTCGCTTGGAAAAAAAAAAAAAAAAAAGAA	-1.07
ACCAGGGGCCAGCAAGAGGTGACCCCAGGG	3.91
CCTTCCAGCAGCAGGCCTGGGGGCAAAGTC	2.74
CCCAGGCTTATCTCACTCCAAAGGCTGTTT	-0.0712
GTGGGGAAAGAGCCCCTTTGTCCATTATCT	0.236
AGTGGAAATTGTCCTGCGGTTGGCTCAGGC	-0.952
GTTACAGTGGAGAAACCTGACAGACTGGAC	-0.871
AAGATAGAGGCTTTAGCAATAAATTCTGTT	-0.871
CTGTGTTTTGCCCCTGCAGAGTTTTTTACT	0.931
GACAATGGGAGACATTCCTTCAGCGTGAAC	-0.649
TCCATCTAAATGGCAATGGCTGCAGCTCTT	-1.08
TCAAAGTGTCAGTCCAGAGTTTGTGGCTCC	1.08
CGGACAGGTAACGTAAACAAGTAAGGAAGA	-1.19
TTATATTGAATTCCTGGAAATCCCGAAATA	-1.17
TAGGGTAGGGTTAGGGTTAGGGGTTAGGGG	-0.863
TAACTTTTGTCTCTGGAGGGATCAGGTCTT	1.23
AATCCCAGCTCGTGGGCATGCCTCCCAGAG	-1.13
CAGCAGTGTACTTGAGCTTCCAGTTAAGCA	-0.71
AATTTCCAACAAATGAAACTAAAGGCACCT	-1.1
GGTCACATGCCTAGGTAAGCCCACTAGGGA	-1.07
CCTGCCAACTCCACGCCCGCCGCCAGGTGG	-1.1
GGGGGGTGTTATCTCTGATGCCCTTTGGCC	6.37
AGGCACTTAGCAAATATTTACTGAATGAAT	-1.19

Sequence	binding signal (log2 normalized intensity)
ACACCTGTTCTAATCAGTAGCTCACAAATA	-1.11
CTTCAAAGGTCGTGTGCTTATCACATCTAT	1.12
GGTCACATAGCCAGTAAATCATGGATCTGT	-0.415
AACATCAAATACCTCCAAGAGGTTTTAGGC	-0.807
TCAGTCTGGTTGAGGCAAGCAAAAGCCAAG	-0.985
CCCCTGCCACTTTCACAAATCATTACTATC	-0.447
GTATCCCAGGGACTTACTCAACTAGCTCCA	-1.12
GTGGGAGAGCAAGGGTCAAGGGTCATTTGT	6.7
GAGGAACTCCAGAACCAAAGTCCTAGAGTC	-1.02
CCTAAGGGCACCCTTCCTGCTTCCAGGCTT	-1.03
TTGGAGATCTGAACTCAAGCTCTTAAAGAA	-1.19
TCAGAAGCTGGGAGACCACTGGTGTAAGCT	-1.13
TTGGCTTGGTTCCACATCAGAGAGTTCAAA	0.629
GGTCACAGAAAGTGACGTGCAGAGGAGCAA	-0.773
TTACCTTGACCAAAGTACAGTAATTTCACT	1.02
GGGCAGGGACTTTGCCCTTTTTAATGTTTC	5.08
GAGCCTTCAAAGGAAAGCAGGTGTTCACCT	-0.111
CCATGCAGCCAGGGTCAGGAGAAGCAGAAC	-1.12
ACCCATCATGAGTAGGTTTACTAAAGGAAG	-1.1
TTAAAAAGCTGCAATGGCTTCACAATTCCT	-1.13
GACAAGCAGTGACCAAGGGTCAGTTTGAAA	2.65
TAACAGGATTTTTGCTGAAGACAGGCCAGG	-0.417
ATTACATATTAACCTTTGCCCCAGCTGTCA	5.74
CATTCTACCCCTGTGGTTGACCTTTAGTCT	7.73

Sequence	binding signal (log2 normalized intensity)
CAGCTGAACCATATTCTTTACATTTATTAG	1.06
GACCTGTCAAGCAATGATCTTCATGAACTT	1.66
TTTGCTGTGGTAGGCTGTCCTGTGCAATGG	1.76
TTTATCTCCCACATGCTGTCTAGGCCAGAG	-0.262
CACCCCCTATCTTGTGTAATAACGAGACCT	1.5
TGGATACCCTTCCCCCCAAGGCTTCCAATC	3.99
TTAACACAAGTTATTACCGTGATGTTCGTT	1.53
GCTGACTAACAAGCTGCCAAACTCTCACTC	-1.07
TGCCCTAAGCCACAGACAAATATTTGCTGT	-0.493
AAACAAATACCATCATCTCAGGGAGTGCAA	-1.03
TCTGATTAGGTGGATTCGCCCAGCATAGCA	-1.16
CCCCAGCCTGTTTCCCTAGCTTATATCCCC	2.7
CTGAGCCCTAAGAAATCTCCAAGTCAAACA	-1.18
ACCCCACACACCAAAACTCTCTCTCTGTGT	0.575
GAGAGAGCAGGTTGAGTATCTACCACATAC	-1.07
AGAGACTATGTGGTTTTGTAAATATAGGAT	0.295
AGGTCTTGGTTGTTCTGTTTAACAGAGATT	1.65
CCAGTTGGTTGCTAAGAGACAGCTCCACAG	-1.3
TTCTGGCCAGGCAGAGCAGGTTCTCAGGCC	-1.09
ATAAAAAGATAATGCTGGACATGACTGCAC	-1.17
ATCAGTCCAGGAGGGTCACAAGTCCCTGTC	0.535
